Whole data set: some 33,000 sequences, median “E-score (-0.5 to 0.5)” near -0.011, cut for the highest 2% near 0.28. Some of the results follow.
The sequences below were run against T1, Gcr1 (UniProt P07261) (assay: PBM E-score (8-mer binding enrichment) (E-score (-0.5 to 0.5)); higher = stronger / more preferred TF binding; most listed sequences are background and not binding sites). Settings: protein concentration: 100 nM; construct: GST-full length.
T1 sequence: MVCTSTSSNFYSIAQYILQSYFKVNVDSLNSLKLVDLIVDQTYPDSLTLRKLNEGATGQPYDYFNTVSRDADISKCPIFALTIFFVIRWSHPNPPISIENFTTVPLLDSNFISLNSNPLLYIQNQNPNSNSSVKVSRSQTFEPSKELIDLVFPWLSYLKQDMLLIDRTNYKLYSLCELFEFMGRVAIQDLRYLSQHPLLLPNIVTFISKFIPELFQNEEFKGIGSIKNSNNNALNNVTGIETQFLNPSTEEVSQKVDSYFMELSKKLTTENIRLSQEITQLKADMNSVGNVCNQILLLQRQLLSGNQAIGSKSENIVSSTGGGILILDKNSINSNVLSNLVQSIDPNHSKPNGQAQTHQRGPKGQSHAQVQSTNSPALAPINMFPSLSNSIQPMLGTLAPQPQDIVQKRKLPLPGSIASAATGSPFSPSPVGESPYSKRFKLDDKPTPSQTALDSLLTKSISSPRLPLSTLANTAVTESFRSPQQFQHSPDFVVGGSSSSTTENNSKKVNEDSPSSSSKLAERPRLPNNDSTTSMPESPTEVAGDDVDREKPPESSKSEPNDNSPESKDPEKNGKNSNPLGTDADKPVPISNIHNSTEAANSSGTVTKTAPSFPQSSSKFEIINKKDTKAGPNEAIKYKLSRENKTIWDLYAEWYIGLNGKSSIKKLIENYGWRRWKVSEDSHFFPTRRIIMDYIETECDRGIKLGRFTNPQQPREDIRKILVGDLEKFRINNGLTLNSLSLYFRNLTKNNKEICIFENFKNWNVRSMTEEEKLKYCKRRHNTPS
Method in brief: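 Bound GST-tagged yeast transcription factors, applied at about 100-200 nM to double-stranded universal all-10-mer Agilent arrays, were detected with fluorescent anti-GST. Scans were normalised with masliner. A modified Wilcoxon-Mann-Whitney statistic, the E-score, was assigned to each ungapped eight-base word pooled with its reverse complement by the Universal PBM Analysis Suite.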

Row | Sequence | PBM E-score
1 | AGTGCCTA | -0.0357
2 | AAGTGCAG | -0.0458
3 | CACCTAGG | -0.108
4 | ACCCGATC | 0.0489
5 | AAGAGCTC | -0.0616
6 | CGGGACGC | 0.13
7 | CTAGCATC | 0.315
8 | ACAACTGT | -0.0194
9 | ATGGGGGG | -0.203
10 | GTGGCAAA | -0.0169
11 | ACTACGGG | 0.00638
12 | GCCTGAGC | -0.185
13 | ACGTGCAC | -0.15
14 | ACTACACC | -0.0155
15 | CAATAGAA | 0.0509
16 | AGGTCTCC | -0.0285
17 | ATCTCCTA | -0.00396
18 | CTGAGCCC | -0.028
19 | CTCTCTAA | -0.179
20 | CTTTCGGA | 0.12
21 | AGGAACGC | 0.174
22 | GAGCATTA | -0.0611
23 | AAAGCCAG | -0.11
24 | AATTCGGG | 0.0184
25 | AGGGTTAA | -0.18

Row | Sequence | PBM E-score
26 | CTGAGGAA | 0.167
27 | CTGCTATC | 0.0665
28 | GGTCTTGA | -0.053
29 | AGCAAGTA | -0.149
30 | ACCTGATG | -0.0625
31 | AATGGACC | -0.059
32 | ATAGTATC | -0.0723
33 | GGCCGCTA | 0.111
34 | ACAACCCG | 0.0764
35 | AAAACGCA | -0.0494
36 | ACATTTGC | -0.0633
37 | ACAGAATG | -0.0529
38 | TCTTGAAA | 0.179
39 | CTAGGCCA | -0.268
40 | ACTGCCAG | -0.0693
41 | GGTCTTAA | -0.0108
42 | AACACGTG | -0.0956
43 | CTTTGTAC | -0.121
44 | ATACCCAT | -0.103
45 | CAGCCAGG | -0.0672
46 | CCTCTAGC | -0.206
47 | ACGCCATA | 0.0626
48 | CCGCATGA | 0.0248
49 | AAGCCGCG | 0.133
50 | CCCCGTCC | -0.0154

Row | Sequence | PBM E-score
51 | GAGAATAC | -0.0814
52 | CATGACAA | -0.187
53 | CATCCTAA | 0.188
54 | AAATTCAA | -0.00063
55 | ACACTACT | 0.0294
56 | CGAATCCC | 0.192
57 | ACACAAGC | -0.131
58 | TGACTTAA | -0.0705
59 | CCAACCTA | -0.114
60 | CACCATAG | 0.0424
61 | CATAACAC | -0.0343
62 | AGATGCGG | 0.219
63 | GGCCAAAA | 0.147
64 | AAGGGCGG | 0.06
65 | CGTACACG | 0.0896
66 | AGCACTCA | -0.0992
67 | GACATTTA | 0.0979
68 | CATCATCA | 0.0245
69 | CTATCGAA | 0.00373
70 | AACCACCG | 0.079
71 | ACGCGGAA | -0.219
72 | GTACTTCA | 0.0121
73 | ACCGTAGA | 0.0351
74 | CAGCTGCG | 0.061
75 | CATCTCAG | 0.0192

Row | Sequence | PBM E-score
76 | CATGCAAA | -0.00491
77 | ACGACACC | -0.114
78 | CAAATGGC | 0.0778
79 | ACGATGAA | 0.0323
80 | ACCCGGTG | -0.00559
81 | AACGCAGG | -0.0203
82 | CCGGTATC | 0.288
83 | CGTTGGAC | -0.268
84 | ACGGTGGC | -0.114
85 | AAAGAAGA | 0.184
86 | GACTTGGA | -0.0352
87 | GATAACCC | -0.017
88 | ATTGTCCC | -0.147
89 | CGGTCTGC | -0.0359
90 | AATTCCAT | 0.191
91 | CGACGAAA | 0.0264
92 | GGTACGGA | -0.178
93 | AGGGTAGA | -0.199
94 | ACTGCGAA | -0.221
95 | AGCTAGGC | -0.121
96 | ACGTCCCA | -0.153
97 | CATGTCGC | -0.00238
98 | GCGCAGCA | -0.0801
99 | GCTCCTAC | -0.171
100 | CCAGTAAG | 0.222

Row | Sequence | PBM E-score
101 | ATGACTAC | -0.116
102 | CTAAGCGA | 0.0817
103 | GGTTGCCA | 0.377
104 | GCAGCGAC | 0.0079
105 | GGACGGAA | 0.0165
106 | ACAAGATA | 0.102
107 | CGCCAACG | -0.115
108 | AGCCCCCG | -0.0643
109 | ACTCTGAT | -0.0712
110 | CGCGGACG | -0.192
111 | GGCACAGA | -0.0983
112 | AGCCGCCT | 0.0597
113 | CCCTTCTA | -0.0975
114 | ACTGGCGC | 0.247
115 | CTGGTAAA | 0.155
116 | ATCGTTGC | -0.118
117 | ATTGAACG | 0.00728
118 | AGCGTAAG | -0.209
119 | AAGCAAAT | -0.156
120 | AGGACCAG | -0.0937
121 | ATCACGAG | -0.0737
122 | CAGCCTAG | -0.0443
123 | ACGCTTTG | -0.113
124 | GCTATCCC | -0.262
125 | CTCGTATA | 0.145

Row | Sequence | PBM E-score
126 | CCTGTTCG | 0.0636
127 | AACTTCAT | 0.0434
128 | GGGATTCA | 0.11
129 | TGTATGAA | 0.113
130 | ACATCCAG | 0.251
131 | AGGTGAAT | -0.0767
132 | CGATAGCC | -0.174
133 | CCGAAAGG | 0.00606
134 | CACGACGG | -0.156
135 | CCACCTCG | -0.214
136 | AAAAGTAA | 0.157
137 | ACTGCCTA | 0.0876
138 | AAGGCGCA | -0.00493
139 | AGAACCCC | 0.0794
140 | TAACGTCA | -0.0544
141 | CTGGGGCA | 0.0556
142 | GTAAACGA | -0.0335
143 | GCGAGAAA | 0.0301
144 | AACCGGCC | -0.196
145 | GTGACTGA | 0.11
146 | CCAATGCA | -0.169
147 | AGAGAAAC | 0.181
148 | GGGGGGAA | -0.27
149 | GAAAGATC | -0.075
150 | CTGTATGC | -0.0214

Row | Sequence | PBM E-score
151 | CAATAGGC | -0.0717
152 | CAATGAGG | -0.0488
153 | AGTGCTAT | -0.177
154 | GAGTAACC | 0.0288
155 | GGAAGGTA | 0.045
156 | GAGGGGCA | -0.105
157 | AGTGTGTG | -0.00969
158 | GAGGAACC | 0.318
159 | CATCAATC | 0.0763
160 | CCGCTTGC | -0.0401
161 | AACTGGAA | 0.342
162 | CGCCTTCA | -0.0419
163 | ACTTGGCC | -0.117
164 | GGTCTTAC | -0.147
165 | CAGGTTCC | 0.226
166 | AGCTCAGA | 0.0831
167 | ATTGAGGC | 0.147
168 | CATGGTTC | 0.062
169 | CTTGTGAC | 0.0438
170 | CCATACCA | 0.0392
171 | ATGGACCG | -0.181
172 | ACGCACCT | 0.0718
173 | AATATGGA | 0.0708
174 | CACCCCGC | 0.201
175 | ATACAGCC | -0.267

Row | Sequence | PBM E-score
176 | AACGTGTA | -0.0536
177 | AAAGACGG | 0.063
178 | TGAATGAA | 0.0885
179 | CGACTTTA | 0.00888
180 | ATATCAGC | 0.0477
181 | GGGCAATA | -0.283
182 | CTAGAAAG | -0.161
183 | AGATACCT | 0.26
184 | GCGGTGTA | 0.0242
185 | ATTACATA | 0.161
186 | AGATTACT | -0.0951
187 | CTAAACTC | 0.0932
188 | TCATTACA | 0.0645
189 | CTTTCTAC | 0.0892
190 | CAGTGCGG | -0.103
191 | CGGGCAGA | -0.0209
192 | CACTCAAA | 0.0624
193 | GAACAACA | -0.164
194 | AGAAGACG | 0.277
195 | AATTAAAG | 0.112
196 | AGTCTATA | -0.0451
197 | CAGGGCTA | -0.0633
198 | AACACATG | -0.022
199 | CTCAGCAA | -0.05
200 | ATGATGAC | -0.162

Row | Sequence | PBM E-score
201 | AATCAAAG | 0.0968
202 | ACCGTGGC | -0.183
203 | AAGCGAAA | 0.0656
204 | AACGAAGT | -0.0859
205 | ACATTCCG | -0.0668
206 | GACGGCGA | -0.0437
207 | CCTTCCTA | -0.019
208 | ACCATCTG | 0.0496
209 | CCAGGAAA | -0.111
210 | AGAACGCG | 0.0534
211 | CGCGCGAA | 0.0586
212 | CCCGAAGG | 0.0163
213 | CCGCCTTC | 0.0135
214 | GCGTTTAA | 0.0506
215 | AAGTGCGA | -0.113
216 | TGCTAGCA | -0.243
217 | GCACACTA | 0.127
218 | CGCTTCTA | 0.259
219 | AGTTAAAG | -0.042

— the supplement of paper PMC3334620
